The source of these data is patent publication US7579486B2, “Metalloprotein inhibitors” (Regents of the University of California, San Diego, priority 2004, dated 2009).

Structures are written as SMILES. pIC50: −log10 of the molar value. Where two headings read alike, the source gives them in different places.

The target of assay [1] is T1, human MMP-3 catalytic domain (Homo sapiens, UniProt P08254). The experiment in a line: biochemical.
The target of assay [2] is T1, human MMP-3 catalytic domain. Particulars: for pIC50: read-out: IC50 against MMP-3, fluorescence-based assay, 1 h at 37° C. with inhibitor, pH 6.0.

In the case of `Cc1cc(=O)c(O)c(C(=O)NCc2ccc(-c3ccccc3)cc2)[nH]1` [AM-2/NH, N-(biphenyl-4-ylmethyl)-3-hydroxy-6-methyl-4-oxo-1,4-dihydropyridine-2-carboxamide], the negative-log IC50 (pIC50) (in general, the negative decadic logarithm of the IC50, by convention in mol/L) in assay [1] was 6.03. As to `COc1ccc(CNC(=O)c2oc(C)cc(=O)c2O)cc1` [AM-4], in assay [2], the pIC50 is 5.62. For `Cc1cc(=O)c(O)c(C(=O)NCc2ccc(-c3ccc(C#N)cc3)cc2)o1` [AM-5, 3-Hydroxy-6-methyl-pyran-4(1H)-one-2-carboxy-N-(4-(4-cyanophenyl)benzylamide)], in assay [2], the “IC50 against MMP-3, in words” value is on record as “nanomolar range” and the negative-log IC50 (pIC50) is 8.00. As to `Cc1cc(=O)c(O)c(C(=O)Nc2ccc(-c3ccccc3)cc2)o1` [AM-1, 3-Hydroxy-6-methyl-pyran-4(1H)-one-2-carboxy-N-(4-biphenylamide)], in assay [2], the pIC50 was under 4.30. As for `O=C(Cc1ccccc1)NCc1cc(=O)c(O)co1` [KA2], in assay [1], the negative-log IC50 (pIC50) is 3.70. For the molecule `Cc1cc(=O)c(O)c(C(=O)NCc2ccc(-c3ccc(-c4ccccc4)cc3)cc2)o1` [AM-6, 3-Hydroxy-6-methyl-pyran-4(1H)-one-2-carboxy-N-(4-biphenylbenzylamide)], in assay [2], the “IC50 against MMP-3, in words” value was “nanomolar range”; the “selectivity for MMP-3 over MMP-2” value is over 2500 fold; the pIC50 was 7.72. With `Cc1cc(=O)c(O)c(C(=O)NCc2ccc(-c3ccccc3)cc2)o1` [AM-2, 3-Hydroxy-6-methyl-pyran-4(1)-one-2-carboxy-N-(4-phenylbenzylamide)], in assay [2], the “IC50 against MMP-3, in words” value is listed as “nanomolar range” and the negative-log IC50 (pIC50) is 6.62. As for `O=C(NCc1ccc(-c2ccccc2)cc1)c1cccc(=O)n1O` [compound 20], in assay [1], the pIC50 was 6.25. `O=C(NCc1ccc(/C=C/c2ccccc2)cc1)c1occc(=O)c1O` [PY-Stil, (E)-3-hydroxy-4-oxo-N-(4-styrylbenzyl)-4H-pyran-2-carboxamide] gave a negative logarithm of the IC50 (pIC50) in assay [1] of 7.15.

For `O=C(CCc1ccccc1)NCc1cc(=S)c(O)co1` [TKA3], the pIC50 in assay [1] is 4.05. `O=C(CCc1ccccc1)NCc1cc(=O)c(O)co1` [KA3] had a pIC50 in assay [1] of 3.03. As to `O=C(Nc1ccc(-c2ccccc2)cc1)c1cc(=O)c(O)co1` [CA1], the inhibition (in general, the relative decrease from the control value, in per cent) at 50 µM in assay [1] (read-out: inhibition of MMP-3) was found to be 25%.

In turn, `O=C(CCCc1ccccc1)NCc1cc(=O)c(O)co1` [KA4] gave a pIC50 in assay [1] of 3.40.
